Measured values: PMC7005872
Positions count from the first letter of the chain named. These are yes or no findings as the source states them, for the method shown. In cells and extracts the contact can be indirect. Some entries that bind do so weakly or less than the wild type. Where a sequence is shown, tags or fusion partners need not be part of it. Each block holds one binder with its values, some of them ahead of it.

Amino acid sequences for entries named in this document (tags omitted). Residues count along the entry.
UniProt P05161, residues 1-157: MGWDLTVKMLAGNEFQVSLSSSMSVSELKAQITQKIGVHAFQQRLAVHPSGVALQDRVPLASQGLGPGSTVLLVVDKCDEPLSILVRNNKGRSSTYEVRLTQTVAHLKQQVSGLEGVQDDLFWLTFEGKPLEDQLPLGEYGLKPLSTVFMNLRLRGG
UniProt P61960: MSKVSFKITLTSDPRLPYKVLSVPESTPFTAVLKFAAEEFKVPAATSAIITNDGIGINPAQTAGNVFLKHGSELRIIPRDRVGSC

Tests used:
[1] = target: T1, FLAG-TBK1 (TANK-binding kinase 1) (UniProt Q9UHD2); experiment: co-IP; transiently expressed tagged proteins; lysis in 10 mM Tris-HCl pH 7.4, 150 mM NaCl, 10 mM MgCl2, 1 mM EDTA, 1% Triton X-100; antibody 2 h and Protein G Sepharose 1 h at 4 °C; five washes; immunoblot
T1 sequence: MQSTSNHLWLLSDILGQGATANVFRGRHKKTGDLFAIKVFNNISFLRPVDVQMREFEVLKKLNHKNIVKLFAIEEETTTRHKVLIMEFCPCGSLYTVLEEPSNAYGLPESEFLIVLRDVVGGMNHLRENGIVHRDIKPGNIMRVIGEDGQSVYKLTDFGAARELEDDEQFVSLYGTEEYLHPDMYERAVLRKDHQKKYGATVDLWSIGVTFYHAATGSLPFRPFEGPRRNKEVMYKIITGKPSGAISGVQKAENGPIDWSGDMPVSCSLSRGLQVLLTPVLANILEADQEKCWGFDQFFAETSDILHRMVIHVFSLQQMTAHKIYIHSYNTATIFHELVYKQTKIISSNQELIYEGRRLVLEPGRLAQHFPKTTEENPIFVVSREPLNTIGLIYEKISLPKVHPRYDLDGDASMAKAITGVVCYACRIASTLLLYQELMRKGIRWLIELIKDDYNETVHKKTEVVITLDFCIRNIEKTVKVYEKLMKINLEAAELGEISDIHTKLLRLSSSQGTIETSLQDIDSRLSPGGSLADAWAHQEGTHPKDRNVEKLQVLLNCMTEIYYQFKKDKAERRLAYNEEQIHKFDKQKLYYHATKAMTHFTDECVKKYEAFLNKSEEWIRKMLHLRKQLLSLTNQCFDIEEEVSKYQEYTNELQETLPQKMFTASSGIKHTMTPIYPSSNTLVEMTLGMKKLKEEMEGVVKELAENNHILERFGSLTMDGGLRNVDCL

[2] = target: GST-ISG15 (IFN-stimulated gene 15) (human) (UniProt P05161); experiment: pull-down; beads coated with GST-fusion proteins incubated 2 h at 4 °C with lysate of transfected HeLa cells (50 mM HEPES pH 7.4, 250 mM NaCl, 10 mM MgCl2, 1% Triton X-100); five washes; immunoblot with anti-GFP; only the target purified
[3] = target: GST-UFM1 (ubiquitin-fold modifier 1) (human) (UniProt P61960); experiment: as above
GFP-TBK1 S172A = target: T2, GFP-TBK1 S172A (UniProt Q9UHD2); experiment: co-IP; transiently expressed tagged proteins; lysis in 10 mM Tris-HCl pH 7.4, 150 mM NaCl, 10 mM MgCl2, 1 mM EDTA, 1% Triton X-100; antibody 2 h and Protein G Sepharose 1 h at 4 °C; five washes; immunoblot
T2 sequence: T1 sequence with S172A

GFP-TBK1 K38A = target: T3, GFP-TBK1 K38A (UniProt Q9UHD2); experiment: as above
T3 sequence: T1 sequence with K38A

binding [1]: binds | binding [2]: no binding | binding [3]: no binding
B1: GFP-TBC1D9 (TBC1 domain family member 9) (protein, UniProt Q6ZT07 1-1266)
chain: MWVNPEEVLLANALWITERANPYFILQRRKGHAGDGGGGGGLAGLLVGTLDVVLDSSARVAPYRILYQTPDSLVYWTIACGGSRKEITEHWEWLEQNLLQTLSIFENENDITTFVRGKIQGIIAEYNKINDVKEDDDTEKFKEAIVKFHRLFGMPEEEKLVNYYSCSYWKGKVPRQGWMYLSINHLCFYSFLMGREAKLVIRWVDITQLEKNATLLLPDVIKVSTRSSEHFFSVFLNINETFKLMEQLANIAMRQLLDNEGFEQDRSLPKLKRKSPKKVSALKRDLDARAKSERYRALFRLPKDEKLDGHTDCTLWTPFNKMHILGQMFVSTNYICFTSKEENLCSLIIPLREVTIVEKADSSSVLPSPLSISTRNRMTFLFANLKDRDFLVQRISDFLQQTTSKIYSDKEFAGSYNSSDDEVYSRPSSLVSSSPQRSTSSDADGERQFNLNGNSVPTATQTLMTMYRRRSPEEFNPKLAKEFLKEQAWKIHFAEYGQGICMYRTEKTRELVLKGIPESMRGELWLLLSGAINEKATHPGYYEDLVEKSMGKYNLATEEIERDLHRSLPEHPAFQNEMGIAALRRVLTAYAFRNPNIGYCQAMNIVTSVLLLYAKEEEAFWLLVALCERMLPDYYNTRVVGALVDQGVFEELARDYVPQLYDCMQDLGVISTISLSWFLTLFLSVMPFESAVVVVDCFFYEGIKVIFQLALAVLDANVDKLLNCKDDGEAMTVLGRYLDSVTNKDSTLPPIPHLHSLLSDDVEPYPEVDIFRLIRTSYEKFGTIRADLIEQMRFKQRLKVIQTLEDTTKRNVVRTIVTETSFTIDELEELYALFKAEHLTSCYWGGSSNALDRHDPSLPYLEQYRIDFEQFKGMFALLFPWACGTHSDVLASRLFQLLDENGDSLINFREFVSGLSAACHGDLTEKLKLLYKMHVLPEPSSDQDEPDSAFEATQYFFEDITPECTHVVGLDSRSKQGADDGFVTVSLKPDKGKRANSQENRNYLRLWTPENKSKSKNAKDLPKLNQGQFIELCKTMYNMFSEDPNEQELYHATAAVTSLLLEIGEVGKLFVAQPAKEGGSGGSGPSCHQGIPGVLFPKKGPGQPYVVESVEPLPASLAPDSEEHSLGGQMEDIKLEDSSPRDNGACSSMLISDDDTKDDSSMSSYSVLSAGSHEEDKLHCEDIGEDTVLVRSGQGTAALPRSTSLDRDWAITFEQFLASLLTEPALVKYFDKPVCMMARITSAKNIRMMGKPLTSASDYEISAMSG

binding (GFP-TBK1 S172A): no binding | binding (GFP-TBK1 K38A): binds
B2: FLAG-TBC1D9 (protein, UniProt Q6ZT07 1-1266)
chain: B1 chain
